Experimental data from publication PMC4336329 (PLoS ONE, 2015).
In all, about 310,000 compounds went through this assay and about 2,200 (0.71%) showed an effect of 50% or more. The effect is printed as a negative number. Some of the results follow.

target: human ether-à-go-go-related gene (hERG) potassium channel (human, UniProt Q12809); assay: primary screen, population patch clamp on CHO cells stably expressing hERG
Sequence (Q12809 whole entry, looked up): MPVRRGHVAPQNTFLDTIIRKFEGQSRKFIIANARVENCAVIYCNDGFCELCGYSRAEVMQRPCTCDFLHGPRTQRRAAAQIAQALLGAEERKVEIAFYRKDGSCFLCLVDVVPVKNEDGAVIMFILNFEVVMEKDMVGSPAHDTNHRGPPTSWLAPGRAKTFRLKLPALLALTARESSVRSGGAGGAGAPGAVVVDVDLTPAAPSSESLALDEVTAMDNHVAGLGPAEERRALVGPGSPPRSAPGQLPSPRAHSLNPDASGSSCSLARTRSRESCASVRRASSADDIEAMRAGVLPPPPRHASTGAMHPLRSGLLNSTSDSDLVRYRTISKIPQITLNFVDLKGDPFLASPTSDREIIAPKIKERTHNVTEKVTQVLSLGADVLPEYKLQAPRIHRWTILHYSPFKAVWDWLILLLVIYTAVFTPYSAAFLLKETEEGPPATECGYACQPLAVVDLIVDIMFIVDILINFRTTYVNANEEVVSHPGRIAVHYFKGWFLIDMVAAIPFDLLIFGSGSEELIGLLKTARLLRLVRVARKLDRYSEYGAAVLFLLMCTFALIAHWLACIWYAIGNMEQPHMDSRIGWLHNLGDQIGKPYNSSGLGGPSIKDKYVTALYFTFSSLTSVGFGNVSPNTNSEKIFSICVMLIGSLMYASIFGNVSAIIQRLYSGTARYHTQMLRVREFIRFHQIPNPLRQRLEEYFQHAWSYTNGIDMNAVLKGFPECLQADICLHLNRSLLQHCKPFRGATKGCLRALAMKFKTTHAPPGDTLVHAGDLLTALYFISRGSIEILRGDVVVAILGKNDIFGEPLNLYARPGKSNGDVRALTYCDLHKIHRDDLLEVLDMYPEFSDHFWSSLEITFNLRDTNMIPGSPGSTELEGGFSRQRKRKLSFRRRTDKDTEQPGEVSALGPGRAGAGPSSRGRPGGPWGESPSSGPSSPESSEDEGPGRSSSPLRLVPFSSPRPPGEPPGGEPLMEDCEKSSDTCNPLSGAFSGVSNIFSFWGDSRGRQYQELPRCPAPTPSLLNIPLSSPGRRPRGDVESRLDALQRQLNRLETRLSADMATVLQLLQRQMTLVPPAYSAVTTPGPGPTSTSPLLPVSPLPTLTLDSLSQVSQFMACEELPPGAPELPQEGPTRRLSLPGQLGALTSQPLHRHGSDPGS

Row | Structure (SMILES) | hERG current change (%, negative = inhibition) at 1uM [%]
1 | Cn1c(O)c(/C=C2\C=NN=C2c2ccccc2)sc1=S | 4.34
2 | Brc1ccccc1Cn1c(-c2cscn2)nc2ccccc21 | -0.319
3 | CCOC(=O)C1=NN(C(C)=O)C2(CC(=O)N(c3cc(C)cc(C)c3)C2=O)C1 (stereo not shown) | 9.06
4 | O=C(NCc1ccco1)C1CC(=O)N(c2ccc(Cl)cc2)C1 (stereo not shown) | 13.6
5 | Cc1ccc(-c2ccc(SCC(=O)N3CCc4ccccc43)nn2)cc1 | 1.58
6 | Cc1ccc(CNC(=O)CCCCn2c(=O)[nH]c3ccsc3c2=O)cc1 | 7.84
7 | O=C(c1cccs1)N1CCCC(c2nc3c(nnn3Cc3ccccc3Cl)c(=O)[nH]2)C1 (stereo not shown) | 2.03
8 | Cc1nc2ccc(NS(=O)(=O)c3c(C)c(C)cc(C)c3C)cc2s1 | 10.9
9 | COc1ccc(N2CCN(C(c3ccco3)c3sc4nc(C)nn4c3O)CC2)cc1 (stereo not shown) | 1.12
10 | Cl.O=C(O)c1ccc2nc(CO)[nH]c2c1 | 8.97
11 | N#CCOC(=O)C1CCN(S(=O)(=O)c2ccc3c(c2)OCCO3)CC1 | 12.4
12 | CC1CCCCN1C(=O)C(=O)c1cn(CC(=O)N2CCCC2)c2ccccc12 (stereo not shown) | 12.8
13 | COc1cc(/C=N/Nc2ccccc2C(F)(F)F)ccc1O | 6.57
14 | O=C(NC1CC1)c1ccc2snnc2c1 | 6.14
15 | O=C(COC(=O)c1ccncc1)c1ccc(Cl)c(Cl)c1 | 11
16 | COc1cc(C2NC(=O)NC(c3ccccc3)=C2C(C)=O)c(Cl)cc1OCC(=O)O (stereo not shown) | 9.1
17 | Cc1cc(C)cc(NC(=O)CSCc2cnn(-c3ccccc3)c2-n2cccc2)c1 | 13.4
18 | COc1ccc(-c2nnc(OC)c3ccccc23)cc1 | 11.7
19 | COC(=O)c1sccc1NC(=O)CN(C)NS(=O)(=O)c1ccc(Cl)cc1 | 11.3
20 | CCOC(=O)C1CCCN(C(=O)c2cc(S(=O)(=O)N3CCCCC3)ccc2Cl)C1 (stereo not shown) | 7.59
21 | Cc1nc2sc(C(c3cccc(F)c3)N3CC(C)OC(C)C3)c(O)n2n1 (stereo not shown) | 4.88
22 | CCOC(=O)C1=C(CN2CCN(C(=O)c3ccco3)CC2)NC(=O)NC1c1ccc(C)cc1 (stereo not shown) | 2.29
23 | CCS(=O)(=O)C1=NN2C(=N)/C(=C\c3ccc(OC(=O)c4ccco4)c(OC)c3)C(=O)N=C2S1 | 15.6

Row | Structure (SMILES) | hERG current change (%, negative = inhibition) at 1uM [%]
24 | Br.COc1ncnc2c1NC1=C(S2)C(=NCCC(=O)O)CC(C)(C)C1 | 13
25 | CC1=C(OC(=O)c2ccccc2)C(C)(C)C(c2ccc(Br)cc2)OC1=O (stereo not shown) | 13.7
26 | COc1cccc2sc(Nc3nc(-c4ccncc4)cs3)nc12 | 16.6
27 | COc1cccc(NC(=O)Nc2nnc(-c3ccccc3SCc3ccccc3)s2)c1 | 2.04
28 | CCOC(=O)N1CCN(c2nc(-c3cccc(OC)c3)cc(C(F)(F)F)n2)CC1 | 5.08
29 | Cc1ccc(NC(=S)Nc2cccc3ccccc23)cc1 | 9.76
30 | CN1C(=O)[C@H](Cc2ccc([N+](=O)[O-])cc2)NC1=S | -2.82
31 | Cc1[nH]c2ccccc2c1-c1nc2ccccc2[nH]1 | 3.62
32 | O=c1c2ccccc2[nH]c(=S)n1Cc1ccc2c(c1)OCO2 | 6.64
33 | CC(C)c1nc2c([nH]1)c(=O)n(C)c(=O)n2C | 10.6
34 | CCN(CC)C(=O)COc1coc(CN2CCN(c3ccccc3)CC2)cc1=O | 15.9
35 | Cc1ccc(Cl)cc1NC(=O)Cn1cccc1 | 10.9
36 | O=C(CSc1cn(CC(=O)N2CCOCC2)c2ccccc12)N1CCOCC1 | 15.7
37 | CC(NC(=O)CSC1=NCCS1)c1ccccc1 (stereo not shown) | 16.8
38 | O=C(Nc1cccc(-n2cnnn2)c1)c1cccc(Cl)c1 | 6.25
39 | CC1CCN(C2CCN(S(=O)(=O)c3ccc(C(F)(F)F)cc3)CC2)CC1 | -1.29
40 | COC(=O)c1cnc(NNC(=O)c2ccc([N+](=O)[O-])cc2)nc1C(F)(F)F | 2.22
41 | CCc1ccc(S(=O)(=O)N2CCN(Cc3ccco3)CC2)cc1 | 3.03
42 | CCn1nc(C)c(/C=N/NC(=O)c2c[nH]c3ccccc23)c1C | 17.7
43 | CC(C)(C)c1cc(=O)[nH]c(SCc2ccccc2Cl)n1 | 8.27
44 | CCOc1ccc(N(CC(=O)NC2CC3CCC2C3)S(=O)(=O)c2ccc(C)cc2)cc1 (stereo not shown) | 7.07
45 | CCOC(=O)C1=C(CS(=O)(=O)c2ccccc2)NC(=O)NC1c1ccc(OC)c(OC)c1 (stereo not shown) | 14.9
46 | Brc1ccc(C2=Nn3cnnc3SC2)cc1 | 14.7

Row | Structure (SMILES) | hERG current change (%, negative = inhibition) at 1uM [%]
47 | COc1ccc(-n2ccc(=O)c(C(=O)O)n2)cc1 | 15.8
48 | NC(=O)c1ccc(C(F)(F)F)n(Cc2ccc(Cl)cc2)c1=O | 4.85
49 | COc1ccc(CNC(=O)C2CCN(S(C)(=O)=O)CC2)cc1 | 11.7
50 | COc1ccc(/C=C/C(=O)Nc2cccnc2)cc1OC | 14.6
51 | COc1ccc(NS(=O)(=O)c2cccc(NC(=O)CCC(=O)c3ccc(Cl)cc3)c2)cc1 | 0.411
52 | CC1(C)OC(=O)N2CCc3ccccc3C21C (stereo not shown) | -1.79
53 | COc1ccc(CCC(=O)Nc2nc3ccccc3[nH]2)cc1 | 5.78
54 | Cc1ccc(NC(=O)C2CC2c2ccccc2)cc1 (stereo not shown) | 9.72
55 | CC(C)=CCN1CCN(Cc2nc(C(C)C)cs2)CC1CCO (stereo not shown) | 4.55
56 | CCc1nnc(NC(=O)c2ccc(S(=O)(=O)N(CC)Cc3ccccc3)cc2)o1 | 7.4
57 | O=C1N/C(=N/O)S/C1=C\c1ccccc1-n1cccn1 | 6.98
58 | CCCCN1C(=O)CCC(C(=O)O)C1c1ccc(OC)cc1 (stereo not shown) | 10.3
59 | COc1ccccc1CNC(=O)C1CCC(CNS(=O)(=O)c2ccc(NC(C)=O)cc2)CC1 (stereo not shown) | 15
60 | CCC(Sc1ncccc1C(=O)OCCN1CCCC1=O)C(=O)NCc1ccco1 (stereo not shown) | -4.71
61 | C=CCNCCCOc1ccc(Cl)cc1Br.O=C(O)C(=O)O | -4.8
62 | CC(=O)Nc1ccc(-n2c(C)c(C(C)=O)c(C(C)=O)c2C)cc1 | 8.67
63 | COC(=O)c1cc(C(C)=O)c(C)[nH]c1=O | 9.83
64 | CCOc1cc(C(=O)NC(C)C2CC3CCC2C3)cc(OCC)c1OCC (stereo not shown) | 4.43
65 | Cn1cnc2c1c(=O)n(Cc1ccc(F)cc1Cl)c(=O)n2C | 5.61
66 | Cc1ccc(OC(=O)C2c3ccccc3Oc3ccccc32)cc1C | 9.57
67 | Cc1cccc(NC(=S)NNC(=O)c2ccccc2OC(F)F)c1 | 11.6
68 | Cc1cc2ccccc2n1CCNC(=O)C1CCCC1 | 11
69 | CCCC(=O)N/C(N)=N/c1nc(C)c2ccccc2n1 | 13.1

Row | Structure (SMILES) | hERG current change (%, negative = inhibition) at 1uM [%]
70 | COc1ccc(Cn2c(C3CCCCC3)nc3c(c(=O)c4ccccc4n3C)c2=O)cc1 | 9.44
71 | CC(C)C1Cc2c(sc(NC(=S)NC(=O)c3ccccc3)c2C#N)CO1 (stereo not shown) | 3.41
72 | Cc1ccc(-n2c(SCC(=O)NCC3CCCO3)nnc2-c2ccoc2C)cc1 (stereo not shown) | -7.32
73 | COc1cc(N2C(=O)CSC2=S)cc(OC)c1OC | 13.7
74 | CC(=O)Nc1ccc(NC(=O)CSc2nc3ccccc3nc2N2CCCCC2)cc1 | 12.3
75 | O=c1n(Cc2ccc(F)cc2)nc2n1-c1ccccc1SC2 | 7.28
76 | O=C(CSc1ccc2nnc(-c3ccccn3)n2n1)Nc1ccccc1 | -2.42
77 | COc1cc2ccccc2cc1C(=O)Nc1ccccc1C | 16.6
78 | CCOC(=O)COc1ccc2c(C)cc(=O)oc2c1C(=O)c1ccccc1 | 8.3
79 | CC(C)(C)C(=O)C[n+]1ccccc1.[Br-] | 10.9
80 | COc1ccccc1N1CCN(/N=C/c2cc(OC)c(O)c(OC)c2)CC1 | -4.78
81 | O=C(CN1CCC(Cc2ccccc2)CC1)NC(=O)NC1CCCCC1 | -0.54
82 | COc1cccc2c1OC1(C)CC2NC(=O)N1c1cccc(C(=O)N2CCN(c3ccccc3)CC2)c1 (stereo not shown) | 13.8
83 | O=C(c1ccco1)N1CCN(Cc2nc(Cc3ccccc3)no2)CC1 | 5.44
84 | COc1ccc(/C=N/NC(=O)c2nnn(-c3nonc3N)c2-c2cccs2)c(OC)c1 | 21.5
85 | COc1cccc(Sc2ccccc2CN(C)C)c1.Cl | -0.991
86 | Cc1cccc(C(=O)Nc2ccccc2C(=O)OCC(=O)Nc2ccc(C#N)cc2)c1 | 4.63
87 | CC1=NNC(=O)C1CC(=O)N/N=C(\C)c1cccs1 (stereo not shown) | 19.1
88 | COc1ccc(CNC(=O)N2CCN(c3ccccc3OC)CC2)cc1 | -6.08
89 | COc1ccc(CC(C)N2CCN(Cc3ccccc3)CC2)cc1OC (stereo not shown) | 2.68
90 | NC(=O)CC[C@H](NC(=O)c1ccc(F)cc1)C(=O)OCC(=O)Nc1c(F)c(F)c(F)c(F)c1F | 11.5
91 | COc1ccccc1-n1c2c(cc(C(=O)N3CCC(C)CC3)c1=O)C(=O)CC(C)(C)C2 | 1.35
